Structures are written as SMILES. In all, about 310,000 compounds went through this assay and about 14,000 (4.5%) showed an effect of 50% or more. Effects have a minus sign here. The list shows a part of the results.
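Further: peak tail current of the secondary pulse compared with the same well before compound.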

Sequence of human ether-à-go-go-related gene (hERG) potassium channel (Q12809 whole entry, looked up): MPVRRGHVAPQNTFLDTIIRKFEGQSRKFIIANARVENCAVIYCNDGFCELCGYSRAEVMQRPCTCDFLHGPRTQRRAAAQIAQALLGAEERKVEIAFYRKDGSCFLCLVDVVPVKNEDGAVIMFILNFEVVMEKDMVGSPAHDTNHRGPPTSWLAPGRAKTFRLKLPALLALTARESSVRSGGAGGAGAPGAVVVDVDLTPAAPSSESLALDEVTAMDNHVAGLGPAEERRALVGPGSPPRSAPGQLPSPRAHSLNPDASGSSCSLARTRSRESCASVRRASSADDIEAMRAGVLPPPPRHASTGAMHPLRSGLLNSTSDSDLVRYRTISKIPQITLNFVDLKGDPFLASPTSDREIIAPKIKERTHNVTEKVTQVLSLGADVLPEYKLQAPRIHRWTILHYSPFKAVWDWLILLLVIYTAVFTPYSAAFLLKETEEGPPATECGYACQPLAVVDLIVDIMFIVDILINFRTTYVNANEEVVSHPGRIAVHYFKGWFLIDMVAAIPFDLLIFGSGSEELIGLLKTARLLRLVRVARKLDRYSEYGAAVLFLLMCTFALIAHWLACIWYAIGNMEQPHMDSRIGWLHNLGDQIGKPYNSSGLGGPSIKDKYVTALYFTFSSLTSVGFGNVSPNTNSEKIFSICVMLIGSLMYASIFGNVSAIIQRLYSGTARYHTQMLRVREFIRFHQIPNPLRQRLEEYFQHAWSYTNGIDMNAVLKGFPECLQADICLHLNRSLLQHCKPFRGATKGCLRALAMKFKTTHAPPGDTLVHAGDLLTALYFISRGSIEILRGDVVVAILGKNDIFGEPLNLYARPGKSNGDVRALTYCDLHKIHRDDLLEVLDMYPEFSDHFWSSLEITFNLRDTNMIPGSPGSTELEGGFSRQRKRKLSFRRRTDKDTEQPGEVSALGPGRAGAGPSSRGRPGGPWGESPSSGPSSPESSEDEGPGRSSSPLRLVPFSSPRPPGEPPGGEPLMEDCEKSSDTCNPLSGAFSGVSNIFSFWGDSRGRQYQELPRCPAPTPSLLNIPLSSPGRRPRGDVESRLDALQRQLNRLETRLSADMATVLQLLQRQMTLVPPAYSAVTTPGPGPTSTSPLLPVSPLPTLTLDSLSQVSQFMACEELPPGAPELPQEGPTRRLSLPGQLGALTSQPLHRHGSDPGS

The assay addresses human ether-à-go-go-related gene (hERG) potassium channel (human, UniProt Q12809). The assay can be described thus: primary screen, population patch clamp on CHO cells stably expressing hERG.
For the compound `COc1ccc(OC)c(NC(=O)CCCN2C(=O)C3C4C=CC(C4)C3C2=O)c1` (stereo not shown), the “hERG current change (%, negative = inhibition) at 10uM” value is given as -3.43%.

Consider `O=C(C1CCCCC1)N1CCCn2c1nc1ccccc12`, for which the “hERG current change (%, negative = inhibition) at 10uM” value is given as -11.7%.

As to `COc1ccc(Nc2c(C)cccc2C)cc1`, the “hERG current change (%, negative = inhibition) at 10uM” value amounted to 17.7%.

On to `CCN(CC)CCNC(=O)c1c(O)c2c([nH]c1=O)CCCC2`, for which the “hERG current change (%, negative = inhibition) at 10uM” value was found to be 0.236%.

Take `Cc1ncc(C[n+]2ccc(C)c(C)c2)c(N)n1.[Cl-]`: the “hERG current change (%, negative = inhibition) at 10uM” value came to 13.5%.

In the case of `COc1ccc(C)cc1NC(=O)Cn1c(=O)oc2ccccc21`, the “hERG current change (%, negative = inhibition) at 10uM” value stood at 19.1%.

As to `CC1CC(C)CN(C(=O)c2ccc(S(=O)(=O)N3CCCC3)cc2)C1` (stereo not shown), the “hERG current change (%, negative = inhibition) at 10uM” value was 30.6%.

Consider `CCOC(=S)SCC(=O)Nc1nccs1`, for which the “hERG current change (%, negative = inhibition) at 10uM” value worked out at 3.24%.

For `CCn1c(Cc2ccc(OC)cc2)nnc1SCC(=O)N1CCN(c2ccccc2)CC1`, the “hERG current change (%, negative = inhibition) at 10uM” value is recorded as -20.6%.

On to `COc1cccc(C2CCCN2Cc2nc(-c3sccc3C)oc2C)c1` (stereo not shown), for which the “hERG current change (%, negative = inhibition) at 10uM” value stood at 20.6%.

`COc1ccc(CC(=O)NCc2n[nH]c(=S)n2-c2ccccc2OC)cc1`: the “hERG current change (%, negative = inhibition) at 10uM” value was determined as 27.2%.

As for `CCOc1ccc(NC(=O)CSc2nc3c([nH]c4ccccc43)c(=O)n2C)cc1`, the “hERG current change (%, negative = inhibition) at 10uM” value was found to be 14.4%.

For `O=C(O)CN1CCCCCC1=O`, the “hERG current change (%, negative = inhibition) at 10uM” value worked out at 37.9%.

On to `COc1ccc(CCN(C)C(=O)C2CCN(Cc3cccc(OC)c3OC)CC2)cc1OC.O=C(O)C(=O)O`, for which the “hERG current change (%, negative = inhibition) at 10uM” value is on record as -3.13%.

Turning to `COc1cc(OC)cc(C(=O)Nc2nc(CC(=O)NCCc3ccccc3)cs2)c1`, the “hERG current change (%, negative = inhibition) at 10uM” value was -36%.

Take `Cc1oc2c(CN3CCCC(C)C3)c(O)ccc2c(=O)c1-c1ccccc1` (stereo not shown): the “hERG current change (%, negative = inhibition) at 10uM” value is -0.221%.

For `CC1CCCC(NC(=O)CNCc2ccccc2F)C1C.O=C(O)C(=O)O` (stereo not shown), the “hERG current change (%, negative = inhibition) at 10uM” value worked out at 14.7%.

Consider `CCc1ccc(NC(=S)NC(=O)CC(C)C)cc1`, for which the “hERG current change (%, negative = inhibition) at 10uM” value is listed as 9.11%.

Take `Nc1nonc1-c1nc2ccccc2n1CCC(=O)O`: the “hERG current change (%, negative = inhibition) at 10uM” value was -7.6%.

Regarding `COC(=O)c1ccc(NC(=O)C2C3C=CC(C3)C2C(=O)O)cc1` (stereo not shown), the “hERG current change (%, negative = inhibition) at 10uM” value is 5.71%.

Regarding `COC(=O)c1ccc(NC(=O)c2ccc(F)cc2)o1`, the “hERG current change (%, negative = inhibition) at 10uM” value is on record as 12.3%.

As for `C=CCNC(=O)C1CCN(c2cc(C)nc(-c3ccccc3)n2)CC1`, the “hERG current change (%, negative = inhibition) at 10uM” value is on record as -58.2%.

In the case of `CC(C)c1ccc(NC(=O)C2CCN(C(=O)[C@@H]3Cc4ccccc4CN3)CC2)cc1`, the “hERG current change (%, negative = inhibition) at 10uM” value is reported as -67.4%.

`O=C(CCc1n[nH]c(=O)[nH]c1=O)N1CCOCC1`: the “hERG current change (%, negative = inhibition) at 10uM” value is on record as 11.1%.

For `Cc1c(Cl)cccc1NC(=O)C1CCCCC1`, the “hERG current change (%, negative = inhibition) at 10uM” value is 8.37%.

As to `Cc1cccc(C(=O)NCC(=O)N2CCN(c3ccc(Cl)cc3)CC2)c1`, the “hERG current change (%, negative = inhibition) at 10uM” value is -26.3%.

Turning to `Cc1cc(C(=O)N/N=C/c2cccc([N+](=O)[O-])c2O)n[nH]1`, the “hERG current change (%, negative = inhibition) at 10uM” value is 4.6%.

Regarding `COC(=O)c1[nH]c2ccccc2c1NC(=O)C(C)N1CCOCC1` (stereo not shown), the “hERG current change (%, negative = inhibition) at 10uM” value is listed as 9.7%.

As for `CC(C)C[C@H](NC(=O)[C@@H]1O[C@H]1C(=O)O)C(=O)NCCCCN=C(N)N`, the “hERG current change (%, negative = inhibition) at 10uM” value was -32.1%.

For the compound `Cc1ccc(NC(=O)Nc2cccc([N+](=O)[O-])c2)cc1F`, the “hERG current change (%, negative = inhibition) at 10uM” value was 4.8%.

For `O=C1c2cccnc2C(=O)N1Cc1ccc(S(=O)(=O)N2CCN(c3ccccc3)CC2)cc1`, the “hERG current change (%, negative = inhibition) at 10uM” value was 19.6%.

Consider `Br.CCCn1c(=N)n(CC(=O)c2ccc(Cl)c(Cl)c2)c2ccccc21`, for which the “hERG current change (%, negative = inhibition) at 10uM” value was -51.5%.

For `COc1cc(C(=O)OCC(=O)c2c(N)n(C)c(=O)n(C)c2=O)ccc1OCCC(C)C`, the “hERG current change (%, negative = inhibition) at 10uM” value amounted to 11.8%.

Take `Cc1ccc(N2CC(C(=O)N3CCC(C(=O)Nc4ccc(Br)cc4)CC3)CC2=O)cc1` (stereo not shown): the “hERG current change (%, negative = inhibition) at 10uM” value is recorded as -64.2%.

Turning to `C=CCN(C(=O)c1csnn1)C(C(=O)NC1CCCCC1)c1ccccc1` (stereo not shown), the “hERG current change (%, negative = inhibition) at 10uM” value turned out to be 14.8%.

Regarding `O=C(NNc1cc(Cl)ccc1Cl)c1cccs1`, the “hERG current change (%, negative = inhibition) at 10uM” value was 7.63%.

Regarding `CCc1cc2c(SCC(=O)Nc3ncc(Cl)c(C)c3Cl)ncnc2s1`, the “hERG current change (%, negative = inhibition) at 10uM” value is recorded as -7.91%.

On to `Cc1ccc(NC(=O)c2cnc(N3CCN(c4ccccn4)CC3)c3ccccc23)c(Br)c1`, for which the “hERG current change (%, negative = inhibition) at 10uM” value is reported as 10.7%.

On to `Nc1nnnn1/N=C\c1ccc(Cl)c([N+](=O)[O-])c1`, for which the “hERG current change (%, negative = inhibition) at 10uM” value amounted to 3.26%.

With `COc1ccc(/C=C/C(=O)Nc2nc(C)c(C(=O)N(C)C)s2)cc1OC`, the “hERG current change (%, negative = inhibition) at 10uM” value is reported as -20.7%.

Turning to `COc1ccc2nc3ccccc3nc2c1NC(=O)c1ccc(Cl)cc1Cl`, the “hERG current change (%, negative = inhibition) at 10uM” value was found to be 1.86%.

Consider `O=C(Cn1c(=O)c2cccn2c2cccnc21)N1CCN(c2ccc(Cl)cc2)CC1`, for which the “hERG current change (%, negative = inhibition) at 10uM” value is -47%.

For the compound `Cc1nn(CCO)c2ncc(C(=O)c3cc(F)ccc3O)cc12`, the “hERG current change (%, negative = inhibition) at 10uM” value is listed as 21.5%.

Consider `COc1ccc(S(=O)(=O)Nc2cc3c(C(C)=O)c(C)oc3c3ccccc23)cc1`, for which the “hERG current change (%, negative = inhibition) at 10uM” value is reported as -5.49%.

Turning to `O=C(COC(=O)c1ccc([N+](=O)[O-])s1)NC(c1ccccc1)c1ccccc1`, the “hERG current change (%, negative = inhibition) at 10uM” value is 4.45%.

On to `Cc1ccc(NC(=O)Cn2cc(C(F)(F)F)cc(Cl)c2=O)cc1S(=O)(=O)N1CCCCC1`, for which the “hERG current change (%, negative = inhibition) at 10uM” value is reported as -32.9%.

With `COc1cccc(OCC(O)CN2CC(C)CC(C)C2)c1.Cl` (stereo not shown), the “hERG current change (%, negative = inhibition) at 10uM” value is recorded as -13.5%.

As for `CCCCC(CC)CNC(=O)c1ccc2c(c1)OCO2` (stereo not shown), the “hERG current change (%, negative = inhibition) at 10uM” value was -9.28%.

As to `COCCCNC(=O)C1Cc2cc(S(=O)(=O)N3CCCC3)ccc2N1C(C)=O` (stereo not shown), the “hERG current change (%, negative = inhibition) at 10uM” value came to 14%.

Regarding `CCC(C)n1c(SC(C)C#N)nc2ccccc2c1=O` (stereo not shown), the “hERG current change (%, negative = inhibition) at 10uM” value was -0.455%.

For `CCCc1nn(CCc2ccccn2)c(N)c1CC`, the “hERG current change (%, negative = inhibition) at 10uM” value was -4.32%.

For the compound `CC(C)CN(CC(C)C)C(=O)CN1C(=O)NC2(CCc3ccccc3C2)C1=O` (stereo not shown), the “hERG current change (%, negative = inhibition) at 10uM” value is -8.61%.

With `COc1cc(Br)c(C(C)NC(=O)c2ccccc2)cc1OC` (stereo not shown), the “hERG current change (%, negative = inhibition) at 10uM” value is reported as 14.1%.

As to `Cc1cccc(N2CCN(C(=O)n3ccnc3)CC2)c1C`, the “hERG current change (%, negative = inhibition) at 10uM” value is recorded as -26.2%.

Regarding `CC(C)(C)c1nc2ccccc2c2nnc(SCC(=O)Nc3nccs3)n12`, the “hERG current change (%, negative = inhibition) at 10uM” value came out at 7.66%.

Turning to `Cc1nnc(Sc2cc(C(=O)NC3CC3)c3ccccc3n2)s1`, the “hERG current change (%, negative = inhibition) at 10uM” value is listed as -20.7%.

`CCN(CC)C1CCN(C(=O)c2ccc(OC3CCN(CCc4ccccc4)CC3)cc2)C1` (stereo not shown): the “hERG current change (%, negative = inhibition) at 10uM” value was 2.06%.

Turning to `CC12CN3C(O)C(C)(C1)CC(C)(C2)C3O` (stereo not shown), the “hERG current change (%, negative = inhibition) at 10uM” value turned out to be 2.99%.

These data come from publication PMC4336329 (PLoS ONE, 2015).
